According to publication PMC9911399, “Two distinct binding modes provide the RNA-binding protein RbFox with extraordinary sequence specificity”:
Changes are numbered by the printed parent chain; changes in the protein carry UniProt numbers. The list shows a part of the results.

T1: RBFOX1 RRM (Homo sapiens, UniProt Q9NWB1 109-208)
T1 sequence: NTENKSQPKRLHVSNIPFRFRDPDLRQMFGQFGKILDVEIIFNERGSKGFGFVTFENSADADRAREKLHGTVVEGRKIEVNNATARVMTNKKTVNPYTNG

B1: CUCAAGC (DNA:RNA)
RNA: GGGAGACCGGAAUUCAGAUUGUCCCUCAAGCUUAAAUCCCGUCGUAGCCACCA
DNA 1: CAATCTGAATTCCGGTCTCCC
DNA 2: TGGTGGCTACGACGGGATT
B2: GUCGGAC (DNA:RNA)
RNA: B1 RNA with C25G, A28G, A29G, G30A
DNA 1: CAATCTGAATTCCGGTCTCCC
DNA 2: TGGTGGCTACGACGGGATT
B3: AGAACGA (DNA:RNA)
RNA: B1 RNA with C25A, U26G, C27A, A29C, C31A
DNA 1: CAATCTGAATTCCGGTCTCCC
DNA 2: TGGTGGCTACGACGGGATT
B4: AGCCCCU (DNA:RNA)
RNA: B1 RNA with C25A, U26G, A28C, A29C, G30C, C31U
DNA 1: CAATCTGAATTCCGGTCTCCC
DNA 2: TGGTGGCTACGACGGGATT
B5: UGCGGGG (DNA:RNA)
RNA: B1 RNA with C25U, U26G, A28G, A29G, C31G
DNA 1: CAATCTGAATTCCGGTCTCCC
DNA 2: TGGTGGCTACGACGGGATT
B6: UCCUUAC (DNA:RNA)
RNA: B1 RNA with C25U, U26C, A28U, A29U, G30A
DNA 1: CAATCTGAATTCCGGTCTCCC
DNA 2: TGGTGGCTACGACGGGATT
B7: UUUCGGA (DNA:RNA)
RNA: B1 RNA with C25U, C27U, A28C, A29G, C31A
DNA 1: CAATCTGAATTCCGGTCTCCC
DNA 2: TGGTGGCTACGACGGGATT
B8: GUCAACU (DNA:RNA)
RNA: B1 RNA with C25G, G30C, C31U
DNA 1: CAATCTGAATTCCGGTCTCCC
DNA 2: TGGTGGCTACGACGGGATT
B9: GGUUAAU (DNA:RNA)
RNA: B1 RNA with C25G, U26G, C27U, A28U, G30A, C31U
DNA 1: CAATCTGAATTCCGGTCTCCC
DNA 2: TGGTGGCTACGACGGGATT
B10: GGGAACA (DNA:RNA)
RNA: B1 RNA with C25G, U26G, C27G, G30C, C31A
DNA 1: CAATCTGAATTCCGGTCTCCC
DNA 2: TGGTGGCTACGACGGGATT
B11: CGGUCAG (DNA:RNA)
RNA: B1 RNA with U26G, C27G, A28U, A29C, G30A, C31G
DNA 1: CAATCTGAATTCCGGTCTCCC
DNA 2: TGGTGGCTACGACGGGATT
B12: CUCACAG (DNA:RNA)
RNA: B1 RNA with A29C, G30A, C31G
DNA 1: CAATCTGAATTCCGGTCTCCC
DNA 2: TGGTGGCTACGACGGGATT
B13: GCUAAAC (DNA:RNA)
RNA: B1 RNA with C25G, U26C, C27U, G30A
DNA 1: CAATCTGAATTCCGGTCTCCC
DNA 2: TGGTGGCTACGACGGGATT
B14: CAUGUAA (DNA:RNA)
RNA: B1 RNA with U26A, C27U, A28G, A29U, G30A, C31A
DNA 1: CAATCTGAATTCCGGTCTCCC
DNA 2: TGGTGGCTACGACGGGATT
B15: ACAAACA (DNA:RNA)
RNA: B1 RNA with C25A, U26C, C27A, G30C, C31A
DNA 1: CAATCTGAATTCCGGTCTCCC
DNA 2: TGGTGGCTACGACGGGATT
B16: CUGACCU (DNA:RNA)
RNA: B1 RNA with C27G, A29C, G30C, C31U
DNA 1: CAATCTGAATTCCGGTCTCCC
DNA 2: TGGTGGCTACGACGGGATT
B17: CCCUUAU (DNA:RNA)
RNA: B1 RNA with U26C, A28U, A29U, G30A, C31U
DNA 1: CAATCTGAATTCCGGTCTCCC
DNA 2: TGGTGGCTACGACGGGATT
B18: UACGGAA (DNA:RNA)
RNA: B1 RNA with C25U, U26A, A28G, A29G, G30A, C31A
DNA 1: CAATCTGAATTCCGGTCTCCC
DNA 2: TGGTGGCTACGACGGGATT
B19: AGGAGUC (DNA:RNA)
RNA: B1 RNA with C25A, U26G, C27G, A29G, G30U
DNA 1: CAATCTGAATTCCGGTCTCCC
DNA 2: TGGTGGCTACGACGGGATT
B20: GAUCCCU (DNA:RNA)
RNA: GGGAGACCGGAAUUCAGAUUGUCCGAUCCCUUUAAAUCCCGUCGUAGCCACCA
DNA 1: CAATCTGAATTCCGGTCTCCC
DNA 2: TGGTGGCTACGACGGGATT

These binders were tested against T1, RBFOX1 RRM (assay: EMSA; HiTS-Eq, 1 nM pool, 10 min; buffer printed only for the single-RNA assays: 10 mM Tris pH 7.5, 150 mM NaCl, 3.4 mM EDTA, 0.001% NP-40, 30 C). Details: tags: His6 N-terminal (pET28a); label: 5' 32P.
Outline: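 Purified RbFox RRM (wild type or mutant) was equilibrated for 10 min in 50 µL with 1 nM of a 5′-radiolabelled pool of RNA with 7 randomized nucleotides, its flanks annealed to DNA oligonucleotides, across increasing protein concentrations. Free RNA was separated by 8% native PAGE, excised, reverse-transcribed, PCR-barcoded and sequenced on an Illumina HiSeq 2500. Relative association constants came from read-count changes of each variant against the control reaction, normalised to the cognate motif.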
For B1, the binding signal was 0.0049 KA relative to UGCAUGU.
For B2, the binding signal was 0.00642 KA relative to UGCAUGU.
For B3, the binding signal was 0.00985 KA relative to UGCAUGU.
With B4 the binding signal was 0.00333 KA relative to UGCAUGU.
In the case of B5, the binding signal is reported as 0.00891 KA relative to UGCAUGU.
In the case of B6, the binding signal is reported as 0.00825 KA relative to UGCAUGU.
For B7, the binding signal was 0.00323 KA relative to UGCAUGU.
With B8 the binding signal was 0.00552 KA relative to UGCAUGU.
In the case of B9, the binding signal is reported as 0.00277 KA relative to UGCAUGU.
In the case of B10, the binding signal is reported as 0.0223 KA relative to UGCAUGU.
B11 was tested, and the binding signal was 0.0102 KA relative to UGCAUGU.
B12 was tested, and the binding signal was 0.00577 KA relative to UGCAUGU.
With B13 the binding signal was 0.00421 KA relative to UGCAUGU.
For B14, the binding signal was 0.0027 KA relative to UGCAUGU.
B15 was tested, and the binding signal was 0.000211 KA relative to UGCAUGU.
In the case of B16, the binding signal is reported as 0.00752 KA relative to UGCAUGU.
With B17 the binding signal was 0.000677 KA relative to UGCAUGU.
With B18 the binding signal was 0.00943 KA relative to UGCAUGU.
With B19 the binding signal was 0.0187 KA relative to UGCAUGU.
B20 was tested, and the binding signal was 0.00885 KA relative to UGCAUGU.
